The target of experiment [1] is BD-BTG2(APRO)boxC (human) (UniProt P78543). As to the kind of experiment: two-hybrid; pairwise; diploid yeast Y187/L40 with LexA-Binding-Domain and Gal4-Activating-Domain plasmids; β-galactosidase assays (Beta-Glo).
Another experiment concerns the target BD-BTG1(APRO) (human) (UniProt P62324). The experiment is described as above.
In the next experiment the target is T1, BD-Tob1(APRO) (human) (UniProt P50616).
T1 sequence: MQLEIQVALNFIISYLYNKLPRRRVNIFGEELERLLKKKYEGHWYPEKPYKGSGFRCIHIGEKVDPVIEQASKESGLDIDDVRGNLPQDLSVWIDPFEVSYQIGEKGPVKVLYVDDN
The experiment is described as above.

Sequences of proteins named here, by UniProt entry; tags and fusion partners are left off. A change or cut given only in a name is not applied to a line headed by its entry. A line that says so, or that is headed by a name, gives the form on record, which may keep a tag or linker. Residues count along the entry.
GST-BTG2(APRO) (P78543, residues 1-126): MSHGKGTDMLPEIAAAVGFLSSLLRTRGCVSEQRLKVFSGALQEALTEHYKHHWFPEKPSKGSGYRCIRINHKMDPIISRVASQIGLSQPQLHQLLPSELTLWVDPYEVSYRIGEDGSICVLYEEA
BD-BTG2(APRO)boxC (P78543, form named): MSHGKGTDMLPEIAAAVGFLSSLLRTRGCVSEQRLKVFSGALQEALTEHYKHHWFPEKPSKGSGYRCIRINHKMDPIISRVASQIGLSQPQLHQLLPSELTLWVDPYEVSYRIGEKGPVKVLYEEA
UniProt P62324, residues 1-128: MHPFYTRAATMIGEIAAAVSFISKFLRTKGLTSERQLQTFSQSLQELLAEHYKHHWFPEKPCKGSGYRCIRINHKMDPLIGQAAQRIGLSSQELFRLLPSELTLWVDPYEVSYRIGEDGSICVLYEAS
UniProt P11940: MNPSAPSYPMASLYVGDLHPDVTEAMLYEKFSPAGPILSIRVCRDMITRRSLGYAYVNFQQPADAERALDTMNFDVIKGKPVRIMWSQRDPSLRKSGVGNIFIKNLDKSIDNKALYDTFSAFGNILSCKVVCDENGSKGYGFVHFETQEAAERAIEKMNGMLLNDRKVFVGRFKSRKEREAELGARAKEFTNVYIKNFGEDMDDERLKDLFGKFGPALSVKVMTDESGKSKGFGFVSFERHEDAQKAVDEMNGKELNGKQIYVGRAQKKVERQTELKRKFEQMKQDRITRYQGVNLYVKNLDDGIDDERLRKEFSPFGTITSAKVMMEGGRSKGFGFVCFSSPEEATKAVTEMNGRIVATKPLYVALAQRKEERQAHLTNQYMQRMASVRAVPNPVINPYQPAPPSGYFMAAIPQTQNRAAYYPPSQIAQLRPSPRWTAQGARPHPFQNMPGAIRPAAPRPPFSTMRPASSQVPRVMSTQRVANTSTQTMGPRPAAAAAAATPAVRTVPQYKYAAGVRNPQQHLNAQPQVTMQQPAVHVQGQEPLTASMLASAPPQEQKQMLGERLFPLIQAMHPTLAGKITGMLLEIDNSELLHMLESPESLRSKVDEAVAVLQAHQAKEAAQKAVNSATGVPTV
6His-PABPC1(1–190): residues 1-190 of P11940
6His-PABPC1(1–99): residues 1-99 of P11940
6His-PABPC1(85–190): residues 85-190 of P11940
UniProt Q9UIV1: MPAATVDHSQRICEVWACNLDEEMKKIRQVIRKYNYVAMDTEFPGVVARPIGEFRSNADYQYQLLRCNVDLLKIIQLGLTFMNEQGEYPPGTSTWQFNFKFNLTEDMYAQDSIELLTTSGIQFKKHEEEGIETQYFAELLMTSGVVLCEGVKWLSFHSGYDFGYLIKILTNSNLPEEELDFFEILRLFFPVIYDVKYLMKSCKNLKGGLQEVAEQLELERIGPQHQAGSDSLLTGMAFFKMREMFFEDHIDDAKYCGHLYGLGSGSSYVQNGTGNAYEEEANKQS

Experiment [2] has as its target BD-BTG2(APRO)wt (human) (UniProt P78543). The experiment is described as above.
For experiment [3] the target is unchanged. As to the kind of experiment: two-hybrid; screen of a human fibroblast cDNA library with a LexA-Binding-Domain-BTG2(APRO) bait (Hybrigenics).
Experiment [4] deals with GFP-BTG2(APRO)-HA (human) (UniProt P78543). As to the kind of experiment: co-IP; HEK293 cells transfected, treated with 0.25 mM Dithio-bis Succinimidyl Propionate 30 min, lysed in Triton-lysis buffer (10 mM Tris-HCl pH 7.5, 150 mM NaCl, 0.5 mM EDTA, 0.5% Triton X-100) with 40 μg/ml RNAse A; GFP-Trap 1 h at 4 °C; blot with anti-GFP and anti-PABPC1.
Experiment [5] deals with T2, GFP-Tob1(APRO)-HA (human) (UniProt P50616).
T2 sequence: T1 sequence
The experiment can be described thus: co-IP; HEK293 cells transfected with HA-tagged GFP fusions; lysis in IPP150 (10 mM Tris-HCl pH 8.0, 150 mM NaCl, 1% Igepal CA-630); anti-HA agarose 1 h at 4 °C; blot with anti-GFP and anti-CNOT7.

Experiment [6] concerns the target 6His-PABPC1(1–99) (human) (UniProt P11940). As to the kind of experiment: pull-down; PD with recombinant proteins expressed in E. coli (Supplementary Fig. 8a); His- or GST-PD not told.
Experiment [7] has as its target 6His-PABPC1(85–190) (human) (UniProt P11940). As to the kind of experiment: pull-down; His-PD: GST- and His-proteins co-expressed in E. coli; lysate on Ni-NTA resin 1 h at 4 °C in 50 mM Tris-HCl pH 8.0, 40 mM imidazole, 300 mM NaCl, 1 mM β-mercaptoethanol, 0.1% Igepal; SDS-PAGE, Coomassie.
In experiment [8] the target is 6His-PABPC1(1–190) (human) (UniProt P11940). The experiment is described as above.
The target in experiment [9] is 6His-PABPC1(1–99) (human) (UniProt P11940). Described as above.
Experiment [10] concerns the target 6His-PABPC1(1–190) (human) (UniProt P11940). The experiment can be described thus: pull-down; PD with BTG2, PABPC1 and CAF1 together (Supplementary Fig. 3a); proteins co-expressed in E. coli, lysates; His- or GST-PD not told.

These are yes or no findings as the source states them, for the method shown. For some of these results: Binding seen in cells or lysates may run through a third protein. Some entries that bind do so weakly or less than the wild type. For some of these results: Tags and fused reporters may be left off the sequences shown.

As for “AD-PABPC1(1–146) (from UniProt P11940 1-146) (domain or fragment)”, the binding entry is “no binding” in [1]; “binds” in the experiment with BD-BTG1(APRO) (human); “no binding” with BD-Tob1(APRO) (human); “binds” with BD-BTG2(APRO)wt (human) [2]; “binds” with BD-BTG2(APRO)wt (human) [3].
With “PABPC1, endogenous (from UniProt P11940 1-636)”, in [4], the binding result is recorded as “binds”.
Turning to “CNOT7 (CAF1 paralogue), endogenous (from UniProt Q9UIV1 1-285) (enzyme)”, in experiment [5], the binding result is “binds”.
For the substance “AD-CNOT7 (from UniProt Q9UIV1 11-262) (enzyme)”, in the experiment with BD-Tob1(APRO) (human), the binding entry is “binds”.
“GST-BTG2(APRO) (from UniProt P78543 1-126) (domain or fragment)”: the binding result in experiment [6] is “binds”; in experiment [7], “binds weakly”; in experiment [8], “binds”; in experiment [9] it was “binds”; in experiment [10], “binds”.

Source of the values: paper PMC4773420 (Nature Communications, 2016).
